Assay results from publication PMC6919601, “Identification of Plasmodium dipeptidyl aminopeptidase allosteric inhibitors by high throughput screening” (PLoS ONE, 2019).
Screen size: about 110,000 compounds; about 230 (0.21%) showed an effect of 50% or more. This is one part of the list.

Target: DPAP1 (Plasmodium falciparum, UniProt Q8IIJ9)
Experiment: primary screen, percent inhibition; read by cleavage of a fluorogenic dipeptide substrate; higher = more effect of the substance
Set-up: species or system P. falciparum D10 trophozoite lysates; single well
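Further: 30 min substrate incubation versus DMSO and 10 µM JCP410 controls.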

DPAP1, sequence (Q8IIJ9 whole entry, looked up): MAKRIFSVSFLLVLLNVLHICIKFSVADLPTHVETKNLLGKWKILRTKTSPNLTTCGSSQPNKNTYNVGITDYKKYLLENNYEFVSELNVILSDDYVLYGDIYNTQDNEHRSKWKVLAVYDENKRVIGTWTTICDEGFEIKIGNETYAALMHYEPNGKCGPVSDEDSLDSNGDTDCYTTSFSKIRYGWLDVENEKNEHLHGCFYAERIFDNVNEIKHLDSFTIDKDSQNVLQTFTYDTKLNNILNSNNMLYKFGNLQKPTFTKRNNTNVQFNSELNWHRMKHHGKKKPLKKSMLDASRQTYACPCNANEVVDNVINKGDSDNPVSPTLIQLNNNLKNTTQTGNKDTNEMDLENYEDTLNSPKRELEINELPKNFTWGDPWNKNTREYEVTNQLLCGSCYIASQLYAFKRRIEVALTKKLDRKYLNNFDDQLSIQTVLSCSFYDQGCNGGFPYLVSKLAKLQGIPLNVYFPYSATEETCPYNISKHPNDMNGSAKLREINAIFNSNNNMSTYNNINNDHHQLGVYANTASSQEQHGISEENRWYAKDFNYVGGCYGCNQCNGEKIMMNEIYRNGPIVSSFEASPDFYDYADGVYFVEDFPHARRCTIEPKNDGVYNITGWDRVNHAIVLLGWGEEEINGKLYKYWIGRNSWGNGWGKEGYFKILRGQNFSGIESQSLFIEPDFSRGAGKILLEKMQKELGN

Which “% Inhibition @ 10 uM” value does the source give for `COCCNC(=O)c1ccc(CNS(=O)(=O)c2cccc(C(F)(F)F)c2)cc1` here?
The value was 3.56%.

With `Cc1ccc(C(=O)N/C(=C\c2cccnc2)C(=O)NCCc2c[nH]c3ccccc23)cc1` as the molecule, how does the “% Inhibition @ 10 uM” value read?
Its value is 8.37%.

`COC(=O)c1c[nH]n2c(NC3CCC(C)CC3)c(-c3ccc(OC)c(OC)c3)nc12` (stereo not drawn) was tested. Which “% Inhibition @ 10 uM” value did it give?
The value was -3.94%.

Which “% Inhibition @ 10 uM” value does the source give for `CCOc1cccc(-c2nnc(N)s2)c1` here?
Its value is -5.7%.

How did the “% Inhibition @ 10 uM” value turn out when `Cc1ccccc1OCC(=O)N1CCC(C)CC1` was run?
Its value is -9.82%.

`CC(C)C[C@H](NC(=O)c1ccc(Cl)c(Cl)c1)C(=O)NCC#N` was tested. Which “% Inhibition @ 10 uM” value did it give?
Its value is 4.45%.

`O=C1/C(=C\c2ccc(F)cc2)N2CCC1CC2` was tested. Which “% Inhibition @ 10 uM” value did it give?
The value was -10.8%.

`CC1=C(C(=O)Nc2ccccc2)C(c2ccccc2)n2c(s/c(=C/c3ccoc3)c2=O)=N1` (stereo not drawn) was tested. Which “% Inhibition @ 10 uM” value did it give?
Its value is -6.27%.

`Cc1cc(C)c2c3c(sc2n1)C(c1ccncc1)C(C#N)=C(N)O3` (stereo not drawn) was tested. Which “% Inhibition @ 10 uM” value did it give?
Its value is 3.99%.

`O=C(Cn1nnc2sc3c(c2c1=O)CCCC3)NCCc1ccccc1` was tested. Which “% Inhibition @ 10 uM” value did it give?
The value was 0.561%.

With `Cc1ccc(CS(=O)Cc2ccc(C(=O)N3CCN(Cc4ccccc4)CC3)o2)cc1` (stereo not drawn) as the molecule, how does the “% Inhibition @ 10 uM” value read?
Its value is -1.28%.

`Cc1cc2nc(O)c(O)nc2cc1S(=O)(=O)NCCc1ccccc1` was tested. Which “% Inhibition @ 10 uM” value did it give?
The value was 4.17%.

`COc1ccc2[nH]c(C)c(CCNC(=O)c3ccc(C)cc3)c2c1` was tested. Which “% Inhibition @ 10 uM” value did it give?
The value was -3.65%.

How did the “% Inhibition @ 10 uM” value turn out when `CC[C@H](NC(=O)[C@H](CC1CCCCC1)NC(=O)OCc1ccccc1)C(=O)CS(=O)(=O)c1ccccc1` was run?
Its value is 4.45%.

How did the “% Inhibition @ 10 uM” value turn out when `Cn1cc(CC(=O)NC2CCCCCC2)c2ccccc21` was run?
Its value is -6.91%.

With `CC(=O)Nc1c(-c2ccccc2)nc2c(C)cccn12` as the molecule, how does the “% Inhibition @ 10 uM” value read?
The value was 1.43%.

How did the “% Inhibition @ 10 uM” value turn out when `CCCOc1ccc(N2C(=O)CC(N3CCC(C)CC3)C2=O)cc1` (stereo not drawn) was run?
Its value is 4.08%.

`Cc1nnc2c3c4c(sc3nc(C)n12)CCC4` was tested. Which “% Inhibition @ 10 uM” value did it give?
Its value is -2.07%.

How did the “% Inhibition @ 10 uM” value turn out when `CCOC(=O)c1cnn(C(C)(C)C)c1C1CCN(C(=O)OC(C)(C)C)CC1` was run?
The value was -2.83%.

`C=CCOc1cccc(CNCc2cccnc2)c1` was tested. Which “% Inhibition @ 10 uM” value did it give?
Its value is -5.32%.

For `Cn1c(=O)[nH]c(=O)c2c1nc(NCc1ccccc1)n2CC(O)COc1ccc(Cl)cc1` (stereo not drawn), which “% Inhibition @ 10 uM” value is on record?
Its value is -2.74%.

`CC(C(=O)N1CCN(CCO)CC1)(c1ccccc1)c1ccccc1` was tested. Which “% Inhibition @ 10 uM” value did it give?
The value was -0.519%.

Which “% Inhibition @ 10 uM” value does the source give for `CC1(C)CC(=O)N(CC(=O)O)c2ccccc2S1` here?
Its value is 3%.

For `Oc1cccc(/C=C/c2cc(C(F)(F)F)nc(O)n2)c1`, which “% Inhibition @ 10 uM” value is on record?
The value was -1.32%.

How did the “% Inhibition @ 10 uM” value turn out when `Cc1ccnc2nc(NC(=O)COc3ccc(Cl)cc3)nn12` was run?
The value was 5.01%.

How did the “% Inhibition @ 10 uM” value turn out when `O=C(Nc1ccc(-c2cn3ccsc3n2)cc1)c1cccs1` was run?
The value was 1.37%.

How did the “% Inhibition @ 10 uM” value turn out when `O=C(O)C1C2C=CC(O2)C1C(=O)NCc1ccccn1` (stereo not drawn) was run?
Its value is -5.46%.

How did the “% Inhibition @ 10 uM” value turn out when `Cc1cc(C)n(CCc2nc3c4ccccc4nc(N4CCN(Cc5ccccc5)CC4)n3n2)n1` was run?
The value was 2.6%.

Which “% Inhibition @ 10 uM” value does the source give for `FC(F)Oc1ccccc1C1C=C(c2ccc(Br)s2)Nc2nnnn21` (stereo not drawn) here?
The value was 3.45%.

How did the “% Inhibition @ 10 uM” value turn out when `Cc1ccc(C)c(NC(=O)C(C)Oc2ccccc2)c1` (stereo not drawn) was run?
Its value is -4.13%.

Which “% Inhibition @ 10 uM” value does the source give for `O=C(OCC1OC2C(Oc3nc(=O)ccn32)C1O)c1ccccc1` (stereo not drawn) here?
Its value is -5.28%.

`O=C(O)c1ccc(NC(=O)C2C3CCC(C3)C2C(=O)O)cc1` (stereo not drawn) was tested. Which “% Inhibition @ 10 uM” value did it give?
Its value is 2.23%.

For `OCC1OC(Nc2ccccc2NC2OC(CO)C(O)C(O)C2O)C(O)C(O)C1O` (stereo not drawn), which “% Inhibition @ 10 uM” value is on record?
Its value is -5.36%.

How did the “% Inhibition @ 10 uM” value turn out when `O=C1NC(=O)C(=Cc2c[nH]c3ccc(Br)cc23)C(=O)N1` was run?
The value was -3.14%.

With `Cc1ccccc1N1CCN(Cc2ccc(Cl)c([N+](=O)[O-])c2)CC1` as the molecule, how does the “% Inhibition @ 10 uM” value read?
Its value is -4.61%.

How did the “% Inhibition @ 10 uM” value turn out when `NS(=O)(=O)c1ccc(CCNC(=O)CCc2ccccc2)cc1` was run?
Its value is -11.7%.

With `O=S(=O)(Cc1ccccc1)c1ccc2ccccc2c1` as the molecule, how does the “% Inhibition @ 10 uM” value read?
Its value is -6.11%.

Which “% Inhibition @ 10 uM” value does the source give for `CC(C)N(Cc1ccccc1)C(=O)C1=CCN(S(=O)(=O)c2ccccc2)CC1` here?
The value was 3.4%.

For `CC1=CC(C)(C)Nc2ccc(OC(=O)CCC3CCCCC3)cc21`, which “% Inhibition @ 10 uM” value is on record?
Its value is 4.26%.

How did the “% Inhibition @ 10 uM” value turn out when `NC(=O)C1CCN(Cc2nc3ccccc3c(=O)n2-c2ccc(F)cc2)CC1` was run?
The value was -3.33%.

How did the “% Inhibition @ 10 uM” value turn out when `CCOC(=O)N1CCN(S(=O)(=O)c2cccc3nonc23)CC1` was run?
The value was 2.84%.

`CN1C(=O)C(=Cc2ccc(OCc3c(F)cccc3Cl)cc2)C(=O)N(C)C1=O` was tested. Which “% Inhibition @ 10 uM” value did it give?
The value was 10.5%.

For `CCOC(=O)c1nc(N)sc1C(=O)OCC`, which “% Inhibition @ 10 uM” value is on record?
Its value is -2.44%.

Which “% Inhibition @ 10 uM” value does the source give for `Cc1ccc2c(cnn2C(=O)CCC(=O)N2CCCCC2)c1` here?
Its value is 3.84%.

For `COC(=O)c1ccccc1NC(=O)c1cccc(C)c1`, which “% Inhibition @ 10 uM” value is on record?
The value was -1.22%.

Which “% Inhibition @ 10 uM” value does the source give for `CCCCc1oc2c(c(=O)c1CC)C(=O)CC(C)(C)C2` here?
The value was 0.726%.

How did the “% Inhibition @ 10 uM” value turn out when `CCOc1ccc(C(C)NC(=O)c2ccco2)cc1OCC` (stereo not drawn) was run?
Its value is -3.49%.

How did the “% Inhibition @ 10 uM” value turn out when `NC(=O)c1ccc(-n2nnnc2Oc2ccc3ccc(=O)oc3c2)cc1` was run?
The value was -2.63%.

`CCCSc1ncc(Cl)c(C(=O)Nc2sc3c(c2C(=O)NCc2ccco2)CCC3)n1` was tested. Which “% Inhibition @ 10 uM” value did it give?
The value was 4.47%.

For `O=C(CN(c1ccccc1Cl)S(=O)(=O)c1ccccc1)NC1CCCC1`, which “% Inhibition @ 10 uM” value is on record?
Its value is 1.57%.

How did the “% Inhibition @ 10 uM” value turn out when `CCc1ccc(OCCCOc2ccc(/C=C3/C(=N)N4C=CSC4=NC3=O)cc2OC)cc1` was run?
The value was 3.47%.
